Results are given in words; binding and its absence hold for the method and conditions named. For some assays here: In cells and extracts the contact can be indirect. Some entries that bind do so weakly or less than the wild type. For some assays here: Sequences can lack the tags named with a protein. Blank lines part the entries; values can stand above or below the molecule they belong to.
Legend:
[1] = target: T1, CNGC12 565R-650* (the C-terminus of CNGC12 without two CNBDs) in pGBKT7 (Arabidopsis thaliana) (UniProt Q8GWD2); test: two-hybrid; yeast AH109; CNGC12 fragments in pGBKT7, CaMs/CMLs in pGADT7; growth on SD/-Trp/-Leu/-His, 29°C, 2 days; three replicates
T1 sequence: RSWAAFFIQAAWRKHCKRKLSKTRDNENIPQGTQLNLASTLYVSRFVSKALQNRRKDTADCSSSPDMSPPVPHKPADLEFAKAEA

[2] = target: T2, CNGC12-CT (441D-650*), the C-terminus of CNGC12, in pGBKT7 (Arabidopsis thaliana) (UniProt Q8GWD2); test: as above
T2 sequence: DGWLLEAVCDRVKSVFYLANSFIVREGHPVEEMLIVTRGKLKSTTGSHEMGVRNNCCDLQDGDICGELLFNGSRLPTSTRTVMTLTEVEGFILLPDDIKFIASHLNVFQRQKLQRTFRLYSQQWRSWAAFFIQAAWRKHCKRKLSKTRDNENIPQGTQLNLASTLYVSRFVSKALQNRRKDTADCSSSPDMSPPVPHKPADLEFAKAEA

[3] = target: T3, CNGC12 565R-594P (IQ domain) in pGBKT7 (Arabidopsis thaliana) (UniProt Q8GWD2); test: as above
T3 sequence: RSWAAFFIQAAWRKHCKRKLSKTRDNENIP

[4] = target: T4, CNGC12 550R-650* (the C-terminus of CNGC12 without the first CNBD) in pGBKT7 (Arabidopsis thaliana) (UniProt Q8GWD2); test: as above
T4 sequence: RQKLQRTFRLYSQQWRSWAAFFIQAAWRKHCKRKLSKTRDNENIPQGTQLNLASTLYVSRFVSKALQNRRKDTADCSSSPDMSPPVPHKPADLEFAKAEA

[5] = target: T5, CNGC12-nVenus (Arabidopsis thaliana) (UniProt Q8GWD2); test: split reporter; BiFC (nVenus/cCFP) in Arabidopsis mesophyll protoplasts, 16-20 h at room temperature, confocal microscopy
T5 sequence: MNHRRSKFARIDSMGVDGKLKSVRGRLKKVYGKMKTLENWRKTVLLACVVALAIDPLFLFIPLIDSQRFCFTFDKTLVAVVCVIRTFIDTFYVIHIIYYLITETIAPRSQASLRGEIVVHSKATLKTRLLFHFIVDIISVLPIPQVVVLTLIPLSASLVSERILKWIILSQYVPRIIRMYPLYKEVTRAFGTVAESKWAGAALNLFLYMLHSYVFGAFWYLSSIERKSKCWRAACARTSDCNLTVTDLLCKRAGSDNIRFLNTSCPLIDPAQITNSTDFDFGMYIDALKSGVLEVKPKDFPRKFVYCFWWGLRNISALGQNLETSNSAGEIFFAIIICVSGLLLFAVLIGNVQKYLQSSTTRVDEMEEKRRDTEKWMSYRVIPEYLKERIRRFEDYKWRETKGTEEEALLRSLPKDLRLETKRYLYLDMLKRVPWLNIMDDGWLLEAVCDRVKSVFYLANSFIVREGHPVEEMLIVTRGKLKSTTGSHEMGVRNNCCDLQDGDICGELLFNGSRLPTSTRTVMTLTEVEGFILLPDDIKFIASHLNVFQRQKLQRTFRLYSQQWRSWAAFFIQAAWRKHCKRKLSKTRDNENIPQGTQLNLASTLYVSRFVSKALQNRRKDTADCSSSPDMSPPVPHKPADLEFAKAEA

[6] = target: GST-CaM1 (Arabidopsis thaliana) (UniProt P0DH95); test: pull-down; purified GST-CaM1 or GST on glutathione agarose beads, mixed with 1 ml cell lysate containing His-tagged CNGC12-CT, 4°C overnight; five washes with PBS; immunoblot with anti-His; only the target purified

- binding [2]: binds
Molecule: CaM6 (full open reading frame) in pGADT7 (from UniProt Q03509 1-149)

- binding [5]: no binding
B2: CNGC11-cCFP (protein, UniProt Q9SKD6 1-621)
chain: MNLQRRKFVRLDSTGVDGKLKSVRGRLKKVYGKMKTLENWRKTVLLACVVALAIDPLFLFIPLIDSQRFCFTFDKTLVAVVCVIRTFIDTFYVIHIIYYLITETIAPRSQASLRGEIVVHSKATLKTRLLFHFIVDIISVLPIPQVVVLTLIPLSASLVSERILKWIILSQYVPRIIRMYPLYKEVTRAFGTVAESKRVGAALNFFLYMLHSYVCGAFWYLSSIERKSTCWRAACARTSDCNLTVTDLLCKRAGSDNIRFLNTSCPLIDPAQITNSTDFDFGMYIDALKSGVLEVKPKDFPRKFVYCFWWGLRNISALGQNLETSNSAGEIFFAIIICVSGLLLFAVLIGNVQKYLQSSTTRVDEMEEKKRDTEKWMSYREIPEYLKERIRRFEDYKWRRTKGTEEEALLRSLPKDLRLETKRYLFLKLLKKVPLLQAMDDQLLDALCARLKTVHYTEKSYIVREGEPVEDMLFIMRGNLISTTTYGGRTGFFNSVDLIAGDSCGDLLTWALYSLSSQFPISSRTVQALTEVEGFVISADDLKFVATQYRRLHSKQLQHMFRFYSLQWQTWAACFIQAAWKRHCRRKLSKALREEEGKLHNTLQNDDSGGNKLNLGAAIYA

The next lines start with the molecule.

Molecule: CaM1 (full open reading frame) in pGADT7 (from UniProt P0DH95 1-149)
- binding [1]: binds
- binding [2]: binds
- binding [3]: binds
- binding [4]: binds

Molecule: CaM1-cCFP (from UniProt P0DH95 1-149)
- binding [5]: binds

B1: His-CNGC12-CT (441D-650*) (domain or fragment, UniProt Q8GWD2 441-649)
chain: T2 sequence
- binding [6]: binds
